From the supplement of paper PMC8728848
The other results are listed elsewhere or left out.

Experiments:
Experiment in all cases: glycan array binding signal (z-score within array); higher = stronger binding
Conditions in all cases: glycan notation: IUPAC condensed, linker removed
[1] = molecular target: Fuc(a1-2)[GalNAc(a1-3)]Gal(b1-3)GlcNAc
Summary of the method: (§1)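 From the Consortium for Functional Glycomics database, 3228 arrays were curated, keeping only those whose protein sequence was available. Binding is given as a within-array Z-score averaged across arrays sharing a protein sequence and across linkers. Negative Z-scores can be read as non-binding.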

[2] = molecular target: Fuc(a1-2)[GalNAc(a1-3)]Gal(b1-3)GlcNAc(b1-2)Man(a1-3)[Fuc(a1-2)[GalNAc(a1-3)]Gal(b1-3)GlcNAc(b1-2)Man(a1-6)]Man(b1-4)GlcNAc(b1-4)GlcNAc
Summary of the method: as §1

[3] = molecular target: Fuc(a1-2)[GalNAc(a1-3)]Gal(b1-3)GlcNAc(b1-2)Man(a1-3)[Fuc(a1-2)[GalNAc(a1-3)]Gal(b1-3)GlcNAc(b1-2)Man(a1-6)]Man(b1-4)GlcNAc(b1-4)[Fuc(a1-6)]GlcNAc
Summary of the method: as §1

[4] = molecular target: Fuc(a1-2)[GalNAc(a1-3)]Gal(b1-3)GlcNAc(b1-3)GalNAc
Summary of the method: as §1

[5] = molecular target: Fuc(a1-2)[GalNAc(a1-3)]Gal(b1-3)GlcNAc(b1-6)GalNAc
Summary of the method: as §1

[6] = molecular target: Fuc(a1-2)[GalNAc(a1-3)]Gal(b1-4)Glc
Summary of the method: as §1

[7] = molecular target: Fuc(a1-2)[GalNAc(a1-3)]Gal(b1-4)GlcNAc
Summary of the method: as §1

[8] = molecular target: Fuc(a1-2)[GalNAc(a1-3)]Gal(b1-4)GlcNAc(b1-2)Man
Summary of the method: as §1

[9] = molecular target: Fuc(a1-2)[GalNAc(a1-3)]Gal(b1-4)GlcNAc(b1-2)Man(a1-3)[Fuc(a1-2)[GalNAc(a1-3)]Gal(b1-4)GlcNAc(b1-2)Man(a1-6)]Man(b1-4)GlcNAc(b1-4)GlcNAc
Summary of the method: as §1

[10] = molecular target: Fuc(a1-2)[GalNAc(a1-3)]Gal(b1-4)GlcNAc(b1-2)Man(a1-3)[Fuc(a1-2)[GalNAc(a1-3)]Gal(b1-4)GlcNAc(b1-2)Man(a1-6)]Man(b1-4)GlcNAc(b1-4)[Fuc(a1-6)]GlcNAc
Summary of the method: as §1

[11] = molecular target: Fuc(a1-2)[GalNAc(a1-3)]Gal(b1-4)GlcNAc(b1-3)Gal(b1-4)GlcNAc
Summary of the method: as §1

[12] = molecular target: Fuc(a1-2)[GalNAc(a1-3)]Gal(b1-4)GlcNAc(b1-3)Gal(b1-4)GlcNAc(b1-3)Gal(b1-4)GlcNAc
Summary of the method: as §1

[13] = molecular target: Fuc(a1-2)[GalNAc(a1-3)]Gal(b1-4)GlcNAc(b1-3)GalNAc
Summary of the method: as §1

[14] = molecular target: Fuc(a1-2)[GalNAc(a1-3)]Gal(b1-4)GlcNAc(b1-3)[Fuc(a1-2)[GalNAc(a1-3)]Gal(b1-4)GlcNAc(b1-6)]GalNAc
Summary of the method: as §1

[15] = molecular target: Fuc(a1-2)[GalNAc(a1-3)]Gal(b1-4)GlcNAc(b1-6)GalNAc
Summary of the method: as §1

[16] = molecular target: Fuc(a1-2)[GalNAc(a1-3)]Gal(b1-4)[Fuc(a1-3)]GlcNAc
Summary of the method: as §1

[17] = molecular target: Fuc(a1-2)[GalNAc(a1-3)]Gal(b1-4)[Fuc(a1-3)]GlcNAc(b1-3)GalNAc
Summary of the method: as §1

[18] = molecular target: Fuc(a1-2)[GalNAc(a1-4)]Gal(b1-4)GlcNAc
Summary of the method: as §1

[19] = molecular target: Fuc(a1-2)[GalNAc(b1-3)]Gal
Summary of the method: as §1

Fuc(a1-3)GlcNAc = molecular target: Fuc(a1-3)GlcNAc
Summary of the method: as §1

[20] = molecular target: Fuc(a1-3)[Gal(b1-4)]Glc6S
Summary of the method: as §1

[21] = molecular target: Fuc(a1-3)[Gal(b1-4)]GlcNAc
Summary of the method: as §1

[22] = molecular target: Fuc(a1-3)[Gal(b1-4)]GlcNAc(b1-2)Man
Summary of the method: as §1

[23] = molecular target: Fuc(a1-3)[Gal(b1-4)]GlcNAc(b1-2)Man(a1-3)[Fuc(a1-3)[Gal(b1-4)]GlcNAc(b1-2)Man(a1-6)]Man(b1-4)GlcNAc(b1-4)GlcNAc
Summary of the method: as §1

[24] = molecular target: Fuc(a1-3)[Gal(b1-4)]GlcNAc(b1-2)Man(a1-3)[Fuc(a1-3)[Gal(b1-4)]GlcNAc(b1-2)Man(a1-6)]Man(b1-4)GlcNAc(b1-4)[Fuc(a1-6)]GlcNAc
Summary of the method: as §1

[25] = molecular target: Fuc(a1-3)[Gal(b1-4)]GlcNAc(b1-3)Gal(b1-3)[Fuc(a1-4)]GlcNAc
Summary of the method: as §1

[26] = molecular target: Fuc(a1-3)[Gal(b1-4)]GlcNAc(b1-3)Gal(b1-4)[Fuc(a1-3)]GlcNAc
Summary of the method: as §1

[27] = molecular target: Fuc(a1-3)[Gal(b1-4)]GlcNAc(b1-3)Gal(b1-4)[Fuc(a1-3)]GlcNAc(b1-3)Gal(b1-4)[Fuc(a1-3)]GlcNAc
Summary of the method: as §1

[28] = molecular target: Fuc(a1-3)[Gal(b1-4)]GlcNAc(b1-3)GalNAc
Summary of the method: as §1

[29] = molecular target: Fuc(a1-3)[Gal(b1-4)]GlcNAc(b1-4)Gal(b1-4)[Fuc(a1-3)]GlcNAc
Summary of the method: as §1

[30] = molecular target: Fuc(a1-3)[Gal(b1-4)]GlcNAc(b1-4)Gal(b1-4)[Fuc(a1-3)]GlcNAc(b1-4)Gal(b1-4)[Fuc(a1-3)]GlcNAc
Summary of the method: as §1

[31] = molecular target: Fuc(a1-3)[Gal(b1-4)]GlcNAc(b1-6)GalNAc
Summary of the method: as §1

[32] = molecular target: Fuc(a1-3)[Gal(b1-4)]GlcNAc(b1-6)[Gal(b1-3)GlcNAc(b1-3)]Gal(b1-4)Glc
Summary of the method: as §1

[33] = molecular target: Fuc(a1-3)[Gal(b1-4)]GlcNAc(b1-6)[Neu5Ac(a2-3)Gal(b1-3)]GalNAc
Summary of the method: as §1

[34] = molecular target: Fuc(a1-3)[Gal(b1-4)]GlcNAc6S
Summary of the method: as §1

[35] = molecular target: Fuc(a1-3)[Gal3S(b1-4)]Glc
Summary of the method: as §1

[36] = molecular target: Fuc(a1-3)[Gal3S(b1-4)]GlcNAc
Summary of the method: as §1

B1: PA-IL (Pseudomonas aeruginosa), Q05097 (protein)
chain: MAWKGEVLANNEAGQVTSIIYNPGDVITIVAAGWASYGPTQKWGPQGDREHPDQGLICHDAFCGALVMKIGNSGTIPVNTGLFRWVAPNNVQGAITLIYNDVPGTYGNNSGSFSVNIGKDQS
- glycan array binding signal (z-score) [1]: -0.216
- glycan array binding signal (z-score) [2]: -0.221
- glycan array binding signal (z-score) [3]: -0.229
- glycan array binding signal (z-score) [4]: -0.222
- glycan array binding signal (z-score) [5]: -0.244
- glycan array binding signal (z-score) [6]: -0.224
- glycan array binding signal (z-score) [7]: -0.206
- glycan array binding signal (z-score) [8]: -0.22
- glycan array binding signal (z-score) [9]: -0.197
- glycan array binding signal (z-score) [10]: -0.221
- glycan array binding signal (z-score) [11]: -0.202
- glycan array binding signal (z-score) [12]: -0.173
- glycan array binding signal (z-score) [13]: -0.223
- glycan array binding signal (z-score) [14]: -0.214
- glycan array binding signal (z-score) [15]: -0.203
- glycan array binding signal (z-score) [16]: -0.197
- glycan array binding signal (z-score) [17]: -0.207
- glycan array binding signal (z-score) [18]: -0.013
- glycan array binding signal (z-score) [19]: -0.22
- glycan array binding signal (z-score) (Fuc(a1-3)GlcNAc): -0.228
- glycan array binding signal (z-score) [20]: -0.207
- glycan array binding signal (z-score) [21]: -0.224
- glycan array binding signal (z-score) [22]: -0.233
- glycan array binding signal (z-score) [23]: -0.21
- glycan array binding signal (z-score) [24]: -0.215
- glycan array binding signal (z-score) [25]: -0.201
- glycan array binding signal (z-score) [26]: -0.19
- glycan array binding signal (z-score) [27]: -0.216
- glycan array binding signal (z-score) [28]: -0.201
- glycan array binding signal (z-score) [29]: -0.215
- glycan array binding signal (z-score) [30]: -0.231
- glycan array binding signal (z-score) [31]: -0.208
- glycan array binding signal (z-score) [32]: -0.23
- glycan array binding signal (z-score) [33]: -0.22
- glycan array binding signal (z-score) [34]: -0.208
- glycan array binding signal (z-score) [35]: -0.225
- glycan array binding signal (z-score) [36]: -0.212
